Experimental findings from the supplement of paper PMC3334620 are described below.

In all, about 33,000 sequences were measured (“E-score (-0.5 to 0.5)”: median about -0.056, highest 2% from about 0.38 on). This is one part of the list.

For this experiment, the target named is Stb4 (UniProt P50104). Kind of experiment: PBM E-score (8-mer binding enrichment) (E-score (-0.5 to 0.5)); higher = stronger / more preferred TF binding; most listed sequences are background and not binding sites. Conditions: protein concentration: 200 nM; construct: GST-DNA-binding domain. An outline of the steps: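 PURExpress in vitro transcription/translation supplied GST-tagged yeast transcription factors, either full-length or DNA-binding domain. Applied at about 100-200 nM to universal all-10-mer Agilent arrays double-stranded by primer extension, the bound protein was detected with fluorescent anti-GST. E-scores, modified Wilcoxon-Mann-Whitney statistics, were given by the Universal PBM Analysis Suite to ungapped eight-base words pooled with their reverse complements after masliner normalisation.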
For CTCCTTGA, the “PBM E-score” value is -0.218.
The value for AGTTGGAC was -0.0261; that for ACGAGTAT was -0.123.
For the sequence CATGTTGG, the “PBM E-score” value is -0.198.
Consider GGCAATCA, for which the “PBM E-score” value was 0.109.
The value for ACCAAGCT was -0.232; that for CACCAGGG was -0.367.
In the case of AAATGAAG, the “PBM E-score” value is -0.112.
The value for ACAAACCA was -0.228.
On to AACGCGCA, for which the “PBM E-score” value is -0.174.
The value for ACTGCTGA was -0.238.
The value for GCCATCTA was -0.157; that for CCTGTAGA was -0.0477; that for AGAATAAG was -0.0478.
The value for AGATCAAA was -0.0539.
Turning to ATACCCTG, the “PBM E-score” value is -0.0928.
The value for CTGAGTAA was -0.226.
In the case of ACTCCACG, the “PBM E-score” value was -0.0643.
ATAATAAC: the “PBM E-score” value came to 0.0397.
CTAAGCCA: the “PBM E-score” value is -0.333.
For the sequence TGCCCAAA, the “PBM E-score” value was -0.0899.
On to AACCTAAC, for which the “PBM E-score” value was 0.0725.
The value for AAGGTGGG was -0.162; that for GGCATTTA was -0.00929; that for CCAGATAA was -0.112.
The value for ACCCTGCG was -0.0706.
The value for AAGTGCCT was -0.228.
ATGTGTAC: the “PBM E-score” value is -0.132.
The value for ATGAGCTG was -0.138.
On to AGCACTAC, for which the “PBM E-score” value was -0.306.
The value for CAAGCAGA was -0.0191; that for ATAGCGCC was 0.0725.
Regarding ATTAGCTA, the “PBM E-score” value was -0.154.
The value for CAACCGGC was 0.218; that for ATTCGCCC was 0.0226; that for AAACGGAA was 0.367.
For GCGGAGGA, the “PBM E-score” value was -0.0295.
In the case of CCTATGGA, the “PBM E-score” value was -0.103.
Take ACGCGTGG: the “PBM E-score” value was -0.00971.
For CAACTAAC, the “PBM E-score” value was 0.163.
Turning to CCAGACGC, the “PBM E-score” value was -0.248.
The value for CCTGGTGC was -0.133; that for AGGTCAGA was -0.078.
The value for TTAGTCAA was -0.165.
The value for ATGCTCGG was 0.404; that for CTCCCGGC was 0.321.
With AAGTGGAT, the “PBM E-score” value was 0.00152.
The value for AAACGTCT was -0.115; that for CGTTGTCA was -0.153.
In the case of AGGCTTTG, the “PBM E-score” value is -0.113.
For CCGTGACA, the “PBM E-score” value amounted to 0.178.
CGGGTGGC: the “PBM E-score” value is 0.258.
On to GATCTGTA, for which the “PBM E-score” value turned out to be 0.0472.
As to AGGTCATG, the “PBM E-score” value is -0.121.
The value for GTATCTGA was -0.0112; that for CGTTGAAG was -0.0863.
As for AGTCAGCA, the “PBM E-score” value was -0.248.
On to ACAGGGGA, for which the “PBM E-score” value is -0.122.
The value for TACGTGGA was -0.171; that for CCTTGTCC was -0.029.
Consider CTCTGCTC, for which the “PBM E-score” value turned out to be 0.036.
The value for AGCTTAAT was 0.0871; that for CCTCTAGA was -0.179; that for ATACTTGC was -0.211.
With GCGAGTAC, the “PBM E-score” value is -0.0817.
The value for CCGAGGCC was 0.436; that for ATACTTCC was 0.197; that for CAACTGTC was -0.175.
The value for GAATACTC was 0.109.
With ATACGAGA, the “PBM E-score” value is -0.282.
The value for ACGTGGGG was -0.142; that for GACTGGGC was -0.165; that for GTCGATGA was -0.0648.
For the sequence CGATCTGC, the “PBM E-score” value is 0.134.
On to GCGAGGTA, for which the “PBM E-score” value is -0.124.
Regarding ATTAGTAG, the “PBM E-score” value was -0.176.
The value for GACTATCC was 0.173.
In the case of CAGAGACA, the “PBM E-score” value was -0.348.
The value for AACAACTT was -0.165.
With GCCACGGA, the “PBM E-score” value came to 0.24.
As for CTCCCATC, the “PBM E-score” value was -0.0432.
Turning to ACACCTCT, the “PBM E-score” value is -0.165.
The value for GAATTAGA was 0.00742.
For ACACTTTG, the “PBM E-score” value is -0.0712.
For ACAACTTC, the “PBM E-score” value was 0.0333.
As to CGGCCTCA, the “PBM E-score” value came out at 0.107.
As to AGCTCGTC, the “PBM E-score” value is -0.0888.
The value for TTATGAAA was -0.0132.
Regarding GCTGCAAA, the “PBM E-score” value is -0.0614.
The value for ATTAGACC was -0.0535.
In the case of CCGCAAAA, the “PBM E-score” value came to 0.157.
The value for CGGGCCCA was 0.11; that for AGGACCCC was -0.0529.
The value for CCGATTCA was 0.194.
